Results from publication PMC4336329 (PLoS ONE, 2015).
Among all 310,000 compounds or so, about 2,200 (0.71%) showed an effect of 50% or more. The effect is printed as a negative number. This is one part of the list.

molecular target: human ether-à-go-go-related gene (hERG) potassium channel (human, UniProt Q12809); experiment: primary screen, population patch clamp on CHO cells stably expressing hERG
Sequence (Q12809 whole entry, looked up): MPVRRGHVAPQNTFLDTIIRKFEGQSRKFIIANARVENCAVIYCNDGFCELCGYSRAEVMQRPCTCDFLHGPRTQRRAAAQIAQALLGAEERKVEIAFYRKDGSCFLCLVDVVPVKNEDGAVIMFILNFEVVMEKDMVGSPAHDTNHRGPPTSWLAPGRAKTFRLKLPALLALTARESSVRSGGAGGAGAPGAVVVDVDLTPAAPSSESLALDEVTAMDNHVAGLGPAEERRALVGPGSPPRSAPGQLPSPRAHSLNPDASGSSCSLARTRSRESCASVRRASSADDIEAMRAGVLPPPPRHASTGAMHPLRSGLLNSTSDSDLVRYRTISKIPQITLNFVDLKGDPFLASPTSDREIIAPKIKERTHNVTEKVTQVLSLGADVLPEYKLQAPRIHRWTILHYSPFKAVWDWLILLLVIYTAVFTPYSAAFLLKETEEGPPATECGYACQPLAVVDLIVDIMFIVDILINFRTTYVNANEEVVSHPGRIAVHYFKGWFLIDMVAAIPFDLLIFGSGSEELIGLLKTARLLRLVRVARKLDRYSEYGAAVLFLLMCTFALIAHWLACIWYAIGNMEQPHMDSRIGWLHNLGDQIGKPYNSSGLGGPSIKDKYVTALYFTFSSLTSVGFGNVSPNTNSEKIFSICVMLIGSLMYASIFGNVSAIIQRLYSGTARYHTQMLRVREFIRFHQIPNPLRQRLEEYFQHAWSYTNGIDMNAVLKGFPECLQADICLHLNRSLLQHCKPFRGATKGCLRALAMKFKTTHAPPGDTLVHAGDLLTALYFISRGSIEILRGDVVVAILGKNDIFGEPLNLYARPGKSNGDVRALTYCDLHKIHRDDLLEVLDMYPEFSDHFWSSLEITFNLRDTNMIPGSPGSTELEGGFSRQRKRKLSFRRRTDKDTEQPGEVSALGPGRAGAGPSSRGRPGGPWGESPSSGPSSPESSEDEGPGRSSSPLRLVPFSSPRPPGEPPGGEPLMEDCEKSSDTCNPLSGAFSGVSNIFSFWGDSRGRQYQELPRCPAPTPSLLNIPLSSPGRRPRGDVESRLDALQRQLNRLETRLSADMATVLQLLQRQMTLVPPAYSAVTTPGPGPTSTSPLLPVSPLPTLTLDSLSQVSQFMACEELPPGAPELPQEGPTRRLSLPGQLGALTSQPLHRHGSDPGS

| SMILES | hERG current change (%, negative = inhibition) at 1uM [%] |
| --- | --- |
| COc1ccc(-c2cc(C(=O)N/N=C/c3cc(OC)c(OC)cc3OC)c3ccccc3n2)cc1 | 15 |
| COc1cc(C)nc(OCCNS(=O)(=O)c2cc(C)ccc2C)n1 | 6.1 |
| CCN1C(=O)/C(=C/c2ccc(OCc3ccc(C(=O)O)cc3)c(Cl)c2)NC1=S | 14 |
| COc1ccc(Nc2ccccc2N)cc1.Cl | 8.84 |
| Cc1cc(NC(=O)CSc2nc3c(cc2C#N)CCC3)no1 | 20.6 |
| CC(=O)C[C@H](O)CC(=O)[C@H]1OC(=O)[C@H](C)C/C=C\Cc2ccccc21 | 10.6 |
| CC(C)(C)OC(=O)N1Cc2ccccc2C[C@H]1C(=O)NCC(=O)NC1CCCC1 | 7.91 |
| CC(C)(C)c1ccc(C(=O)NCC(=O)OCC(=O)c2ccc3c(c2)-c2ccccc2C3)cc1 | 7.71 |
| COc1cc(OC)cc(C(=O)N[C@H](C(=O)OCC(=O)Nc2ccc(F)c(F)c2F)C(C)C)c1 | -12.9 |
| Cc1ccc(-c2nc(CCNC(=O)c3ccco3)cs2)cc1 | 11 |
| CN(C)c1ccc(CNC(=O)CN(C)S(=O)(=O)c2cccc3cccnc23)cc1 | 1.08 |
| CC(C(=O)Nc1ccccc1Cl)N(c1ccccc1)S(C)(=O)=O (stereo not shown) | 18.5 |
| Nc1nonc1-n1nnc(C(=O)N/N=C/c2ccc(Cl)cc2Cl)c1CN1CCCCC1 | 12.2 |
| CC(C)CCOc1ccc(C2(C)NC(=O)N(CN3CCOCC3)C2=O)cc1 (stereo not shown) | 7.5 |
| Cc1oc(-c2ccc(Cl)cc2)nc1CS(=O)CC(=O)NCCCN(C)C1CCCCC1 (stereo not shown) | -12 |
| Cc1cccc(CN(C(=S)Nc2c(C)cccc2C)c2cccnc2)c1 | 6.25 |
| CC(C)(C)C(=O)NC1(C(F)(F)F)NC(=O)N(CCc2ccccc2)C1=O (stereo not shown) | 20.5 |
| COc1ccc(Cn2nnnc2C(c2cc3ccc(OC)cc3[nH]c2=O)N2CCCCCC2)cc1 (stereo not shown) | -8.91 |
| Cc1cc(NC(=O)c2noc3c2CCCCC3)no1 | 10.8 |
| CCn1ncc(Br)c1C(=O)Nc1ccccc1OC | 10.4 |
| O=C(NCCO)c1ccc2c3n(nc2c1)-c1ccccc1CO3 | 15.2 |
| CC(C)(C)NC(=O)CSc1nncn1NCc1c(Cl)cccc1Cl | -6.69 |
| Cc1cc(C)cc(C(=O)N(Cc2ccco2)c2c(N)n(Cc3ccccc3)c(=O)[nH]c2=O)c1 | 17.3 |
| Cc1ccccc1-c1n[nH]c(=S)n1/N=C/C=C/c1ccco1 | 1.21 |
| COc1cc([N+](=O)[O-])ccc1NC(=O)CN1CCCC1 | 9.93 |
| COc1cc(OC)c(OC)cc1/C=N/NC(=O)c1cccc(S(=O)(=O)N2CCOCC2)c1 | 6.78 |
| COc1cc(/C=N\NC(=O)CNC(=O)c2cccc([N+](=O)[O-])c2)ccc1O | 13.1 |
| O=C(CCN1C(=O)/C(=C/c2ccc3c(c2)OCO3)SC1=S)Nc1ccccc1 | 12.4 |

| SMILES | hERG current change (%, negative = inhibition) at 1uM [%] |
| --- | --- |
| N#Cc1c(N)sc(=S)c2c1CCCC2 | 2.13 |
| N#CCSc1nc2c(c(=O)n1Cc1ccccc1)C1(CCCC1)Cc1ccccc1-2 | -2.55 |
| Cc1ccc(S(=O)(=O)Nn2c(C)nnc2-n2nc(C)cc2C)cc1 | 1.05 |
| Nc1nc(N)nc(-c2ccc(Oc3ccccc3)cc2)n1 | 15.2 |
| Cn1c(Cc2ccccc2)nnc1SCC(=O)Nc1ccccc1N1CCOCC1 | 9.22 |
| O=C(Nc1ccccc1)/C(=C/c1ccc(F)cc1)NC(=O)c1ccco1 | 7.46 |
| Cc1ccccc1OCCC(=O)Nc1ccccc1C(=O)N1CCCCC1 | 10.9 |
| Cc1ccc(C(=O)COC(=O)CNC(=O)c2ccc(Br)o2)cc1[N+](=O)[O-] | 10 |
| Cc1ccc(NC(=O)COC(=O)CCC(=O)c2cccs2)cc1C | 8.49 |
| Cc1ccc(C)c(N(CC(=O)NCCc2ccccc2)C(=O)CCC(=O)Nc2ccccn2)c1 | 12.6 |
| N#CCc1nn2c(-c3ccccc3)ccnc2c1C#N | 9.54 |
| N#CC1(P(=O)(c2ccccc2)c2ccccc2)CCCC1 | 9.29 |
| Cc1cc(C)c(C)c(S(=O)(=O)NC(C(=O)NCCc2ccco2)C(C)C)c1C (stereo not shown) | 11.7 |
| COc1ccc(Cl)cc1N(CC(=O)N(C)C)S(=O)(=O)c1ccc(C)c([N+](=O)[O-])c1 | 6.51 |
| COc1cccc(CN2CC(C(=O)NCCn3cccn3)CCC2=O)c1 (stereo not shown) | 16.3 |
| Cc1[nH]c2ccccc2c1CCC(N)=O | 0.826 |
| N#CCSc1nnc(-c2ccc(S(=O)(=O)N3CCOCC3)cc2)n1CC1CCCO1 (stereo not shown) | 7.22 |
| COc1ccc(-n2cnnc2)cc1 | 9.29 |
| CCN(c1ccccc1)S(=O)(=O)c1cc(C(=O)Nc2cccc(Cl)c2)ccc1F | 20.2 |
| CCOC(=O)N1CCN(CC(O)COCC2=CCC3CC2C3(C)C)CC1.O=C(O)C(=O)O (stereo not shown) | 2.84 |
| O=C(CNC(=O)c1ccccc1Cl)OCC(=O)N1CCc2ccccc21 | -8.77 |
| O=c1sc(/C=N/Nc2ccccc2)c(Cl)n1Cc1ccccc1 | 11.8 |
| Cc1c(NC(=O)COC(=O)/C=C/c2ccccc2Br)c(=O)n(-c2ccccc2)n1C | 8.21 |
| O=C(Cc1cccc2ccccc12)NNC(=O)Nc1ccc(Cl)cc1 | 7.15 |
| COc1ccc(C(CC(=O)O)NC(=O)c2cc3cc(Br)ccc3oc2=O)cc1OC (stereo not shown) | 21.7 |
| Cc1cc(C)c2c(NC(=S)NC(=O)c3ccccc3)n[nH]c2n1 | 13.3 |
| CCCCOc1ccc(-c2ncc(C(=O)O)c(C)n2)cc1 | 13.4 |
